Article PMC6371224
These are yes or no findings as the source states them, for the method shown. For part of these data: Binding seen in cells or lysates may run through a third protein. Some binding calls cover weakened binding; strength is not graded here. For part of these data: Where a sequence is shown, tags or fusion partners need not be part of it. Blank lines part the entries; values can stand above or below the binder they belong to.

Sequences of proteins named here, by UniProt entry; tags and fusion partners are left off. Residues count along the entry.
UniProt P70581, residues 239-415: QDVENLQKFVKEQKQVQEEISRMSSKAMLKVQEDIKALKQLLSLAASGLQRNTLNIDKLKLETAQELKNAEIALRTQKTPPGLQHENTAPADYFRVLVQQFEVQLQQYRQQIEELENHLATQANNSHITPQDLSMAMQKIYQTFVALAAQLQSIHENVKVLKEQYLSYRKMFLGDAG

What was measured:
[1] = biological target: T1, Chaetomium thermophilum Nup49 (246-470), His6 tag cleaved (Chaetomium thermophilum) (UniProt G0S4X2); experiment: SEC; Superdex 200 10/300 GL on the Ni-NTA eluate after thrombin cleavage of the His6 tag; Tris-HCl pH 8, 250 mM NaCl, 0.5 mM EDTA, 1 mM DTT, 4°C; peak fractions on 12% SDS-PAGE; both purified
T1 sequence: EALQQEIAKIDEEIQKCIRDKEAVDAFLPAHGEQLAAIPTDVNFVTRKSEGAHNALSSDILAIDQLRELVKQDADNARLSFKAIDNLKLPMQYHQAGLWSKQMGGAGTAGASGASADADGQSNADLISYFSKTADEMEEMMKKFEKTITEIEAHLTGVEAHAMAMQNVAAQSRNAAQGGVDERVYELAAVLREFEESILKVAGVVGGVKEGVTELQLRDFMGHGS

[2] = biological target: Rattus norvegicus Nup58 (239-415), His6 tag cleaved (Rattus norvegicus) (UniProt P70581); experiment: as above
[3] = biological target: His6-tagged Rattus norvegicus Nup58 (239-415) (Rattus norvegicus) (UniProt P70581); experiment: pull-down; Ni-NTA agarose pull-down through His6-tagged Nup58 or ctNup49, co-expressed with rNup62 and rNup54 from one polycistronic plasmid in E. coli; identical conditions for both constructs

binding [1]: no binding
binding [2]: binds
binding [3]: binds
B1: Rattus norvegicus Nup54 (332-510) (domain or fragment, UniProt P70582 332-510)
chain: GFKELLRRLKVQDQMTKQHQTRLDIISEDISELQKNQTTTMAKIAQYKRKLMDLSHRTLQVLIKQEIQRKSGYAIQAEEEQLRVQLDTIQGELNAPTQFKGRLNELMSQIRMQNHFGAVKSEEKYYIDADLLREIKQHLKQQQEGLSHLISIIKDDLEDIKLVEHGLNETIHSRGGVFS

binding [1]: no binding
binding [2]: binds
binding [3]: binds
B2: Rattus norvegicus Nup62 (322-525) (domain or fragment, UniProt P17955 322-525)
chain: AVGTTTGPAMTYAQLESLINKWSLELEDQERHFLQQATQVNAWDRTLIENGEKITSLHREVEKVKLDQKRLDQELDFILSQQKELEDLLSPLEESVKEQSGTIYLQHADEEREKTYKLAENIDAQLKRMAQDLKDIIEHLNMAGGPADTSDPLQQICKILNAHMDSLQWVDQSSALLQRRVEEASRVCESRRKEQERSLRIAFD
